Experimental data reported in PubChem BioAssay AID686970 (National Center for Advancing Translational Sciences (NCATS), 2013).
Hit rate of the full screen: of about 360,000 compounds, about 6,000 (1.7%) were called active. The shares of active, inactive and inconclusive entries below differ from those in the screen. Calls come from the whole dose curve; as a rule, active = well fitted cell-killing curve with a large enough effect; inconclusive = small, poorly fitted or top-dose-only effect, or effect the other way; inactive = flat fitted curve, though single readings scatter. No potency is given beside an inconclusive call; the fits are too rough.

Test: qHTS for induction of synthetic lethality in tumor cells producing 2HG: qHTS for the HT-1080-NT fibrosarcoma cell line;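 note: NT is the 2HG producing partner of a matched IDH1 knockdown line; nearly all actives have a fitted effect of over 55% in size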;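 for activity, negative = less viability: 0% = DMSO-treated cells and -100% = media-only wells without cells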
Conditions: HT-1080-NT fibrosarcoma viability, CellTiter-Glo ATP luminescence, 48 h; activity, negative = less viability: at 46.1 µM (top of the series) unless noted
How it was run: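 Viability of the 2HG-overproducing fibrosarcoma line after 48 hours of compound exposure at 37 degrees C was determined by luminescence with CellTiter-Glo, and concentration-effect curves were then fitted and categorized.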
Potency is the fitted concentration of half-maximal effect; tags give direction and shape of the fitted curve.

Compound | Potency | activity, negative = less viability
CCCCCCC1CC(=CN(C)C)C(=O)O1 (stereo unspecified) | inconclusive [cytotoxic, single point] | –
CN(C)CCCN(C(=O)c1ccco1)c1nc2cc3c(cc2s1)OCO3 | inconclusive [cytotoxic, partial curve, poor fit] | –
COc1ccc(-c2c(C#N)c(N)nc3c2CCc2ccccc2-3)cc1OC | inconclusive [cytotoxic, partial curve] | –
CC1=C(C(=O)Nc2cccc(F)c2)C(c2ccsc2)C2=C(CC(C)(C)CC2=O)N1 (stereo unspecified) | inconclusive [cytotoxic, full curve] | –
CC(C)(C)C1c2[nH]c3ccccc3c2CCN1Cc1cccc(OCCO)c1 (stereo unspecified) | – | inconclusive: -30.5% [cytotoxic]
Cc1ccc2nc(-c3ccccc3N)[nH]c2c1 | inconclusive [cytotoxic, partial curve] | –
Cc1ccc(C)c(S(=O)(=O)N2CCN(c3ncccn3)CC2)c1 | active: 18.4 µM | –
CCC(C)NC(=O)CN1C(=O)c2cccc3cccc1c23 (stereo unspecified) | – | inactive: -1.61%
COc1cc(CN2C(=S)NC(C)(C)CC2(C)O)cc(OC)c1 (stereo unspecified) | – | inactive: -0.0667%
O=C(CSc1nc2ccccc2c(=O)[nH]1)Nc1ccc(S(=O)(=O)N2CCCC2)cc1 | inconclusive [cytotoxic, single point] | –
Oc1ccc2ccccc2c1/C=N/Nc1nnc(-c2ncc[nH]2)c2ccccc12 | active: 5.8 µM | –
COC(=O)c1ccc(C23CC4(C2)[C@H](CN(Cc2cccnc2)[C@@H]4c2ccccc2)C3c2ccc(C(F)(F)F)cc2)cc1 (stereo partly specified) | inconclusive [cytotoxic, single point] | –
N=c1ccn2c(n1)O[C@H]1[C@H](O)[C@@H](CO)O[C@H]12 | – | inconclusive: -21.5% [cytotoxic]
O=C(NCc1ccccc1)c1cc[n+](CC(=O)c2cccs2)cc1 | inconclusive [rising, single point] | –
Cc1ccc(C)c(NC(=S)N(CCc2ccncc2)C(C)C)c1 | inconclusive [rising, single point] | –
CCn1cc([N+](=O)[O-])c(C(=O)Nc2nc(-c3ccc(C)cc3)c(C)s2)n1 | – | inactive: -13.4%
COc1ccccc1CNC(=O)C1CCC(CNC(=O)[C@@H]2Cc3ccccc3CN2)CC1 (stereo partly specified) | – | inactive: -6.6%
COCCn1nnnc1C(c1cc2ccc(C)cc2[nH]c1=O)N(Cc1ccco1)Cc1cccs1 (stereo unspecified) | inconclusive [cytotoxic, single point] | –
Cc1cccc(N(C(=O)c2snc(C(N)=O)c2N)C(C(=O)NC2CCCC2)c2ccc(C)o2)c1 (stereo unspecified) | inconclusive [cytotoxic, single point] | –
CC(C)(C)CC(=O)Nc1cc(S(=O)(=O)N2CCOCC2)ccc1N1CCCC1 | – | inconclusive: 32.9%
COc1ccc2cc(C(C)C(=O)N3CCC(C)CC3)ccc2c1 (stereo unspecified) | active: 14.6 µM | –
COC(=O)N1CCN(c2ccc(OC)cc2)CC1 | inconclusive [rising, single point] | –
CN1C(=O)Cc2cc(S(=O)(=O)N3CCN(c4cccc(C(F)(F)F)c4)CC3)ccc21 | inconclusive [cytotoxic, single point] | –
O=S(=O)(c1cccc(F)c1)N1CCC(CO)(Cc2cccc(F)c2)CC1 | – | inactive: -24.8%

Compound | Potency | activity, negative = less viability
Cc1[nH]c2ccccc2c1C(=O)CCl | inconclusive [cytotoxic, single point] | –
COc1cc(C2C(C#N)=C(N)Oc3cc(N(C)C)ccc32)cc2c1OCO2 (stereo unspecified) | active: 0.199 µM | –
Cc1nn(Cc2cccc(C(=O)O)c2)c(C)c1[N+](=O)[O-] | – | inactive: -1.54%
C(=N\Nc1nc2ccccc2s1)/c1ccco1 | inconclusive [cytotoxic, single point] | –
CCOC(=O)c1ccc(CSC(=N)N)o1 | inconclusive [cytotoxic, single point] | –
CC(=O)c1ccc(NC(=O)COC(=O)c2c3c(nc4ccccc24)/C(=C\c2cccs2)CCC3)cc1 | – | inactive: -21.2%
CNc1nc2cc([N+](=O)[O-])c([N+](=O)[O-])cc2nc1NC | active: 3.26 µM | –
CCC(C)[C@@H](NC(=O)OC(C)(C)C)c1nnc(S(=O)(=O)Cc2cccc(C)c2)o1 (stereo partly specified) | active: 18.4 µM | –
O=C(c1ccoc1)N1CCC(CO)(CCc2ccccc2)CC1 | – | inactive: 11%
CCC(=O)NC(=S)Nc1cccc(Cl)c1N1CCCCC1 | active: 4.47 µM | –
Oc1ccccc1N=Nc1nc(-c2ccccc2)c(-c2ccccc2)[nH]1 | inconclusive [cytotoxic, single point] | –
O=C(NCc1ccco1)c1cccc2c1C(=O)c1ccc(/C=C/c3ccccc3)cc1S2(=O)=O | inconclusive [cytotoxic, single point] | –
COc1ccc(-n2nnnc2/C=C\Nc2ccccc2C(=O)c2ccccc2)cc1 | active: 5.8 µM | –
COc1ccccc1N1CCN(Cc2cc(=O)c(OCC(=O)NC(C)C)co2)CC1 | – | inactive: 9.01%
Cc1onc(-c2ccccc2Cl)c1C(=O)OCC(=O)Nc1cccc(S(=O)(=O)N(C)C)c1 | inconclusive [cytotoxic, single point] | –
COc1ccc(CNc2nc3ccccc3n2CCN2CCOCC2)cc1 | – | inactive: -14.8%
O=C(C1CCN(S(=O)(=O)c2cccs2)CC1)N1CCN(c2ccccc2O)CC1 | – | inactive: 0.183%
CN1OC[C@@H]2CN(C(=O)NC3CCCCC3)[C@H](c3ccc(N4CCCCC4)cc3)C[C@@H]21 | – | inactive: 11.3%
CC1(c2nnc(Cc3ccccc3)o2)CC(c2ccc(Cl)cc2)=NO1 (stereo unspecified) | – | inactive: 19.9%
ClCc1nnc(-c2cc3c(s2)CCCC3)o1 | inconclusive [cytotoxic, single point] | –
O=c1[nH]c(=O)n(C2C[C@H](O)[C@@H](CO)O2)cc1C(F)(F)F (stereo partly specified) | inconclusive [cytotoxic, full curve] | –
CCOC(=O)c1ccc(NC(=O)c2ccc(CN3CCc4ccccc4C3)cc2)cc1 | inconclusive [cytotoxic, partial curve, poor fit] | –
COCCNCC(O)CON=C1c2ccccc2-c2ccccc21 (stereo unspecified) | inconclusive [cytotoxic, partial curve] | –
Cc1noc(C)c1C(=O)OCC(=O)Nc1ccc(S(N)(=O)=O)cc1 | – | inactive: 7.27%

Compound | Potency | activity, negative = less viability
Cc1ccc(C2=CC(C)(c3ccc(C)cc3)Nc3nc(C(F)(F)F)nn32)cc1 (stereo unspecified) | inconclusive [cytotoxic, single point] | –
NC(=O)c1cccc(-c2ccnc3c2CC(C(=O)Nc2ccc(Cl)cc2)O3)c1 (stereo unspecified) | – | inconclusive: -33% [cytotoxic]
Cn1c(=N)n(CC(=O)c2ccc(Br)s2)c2ccccc21 | active: 25.9 µM | –
O=C(C1c2ccccc2Oc2ccccc21)N1CCN(c2ccc(Cl)cc2)CC1 | inconclusive [cytotoxic, single point] | –
O=C(CSc1ccc(Cl)cc1)Nc1ccc(-c2nc3ccccc3[nH]2)cc1 | inconclusive [cytotoxic, single point] | –
CC(C)c1ccc(/C=C2\SC(=S)N(CC(=O)NCCCN3CCOCC3)C2=O)cc1 | inconclusive [cytotoxic, partial curve] | –
CC(=O)c1ccc(NC(=O)Nc2ccccc2)cc1 | inconclusive [cytotoxic, single point] | –
CCC(C)Nc1nc(-c2c[nH]c3ccccc23)cs1 (stereo unspecified) | inconclusive [cytotoxic, single point] | –
CC(=O)Nc1cccc(C(=O)OCc2ccc(C(=O)Oc3ccc(Cl)cc3)cc2)c1 | – | inactive: 2.95%
COc1ccc(-c2cnc3c(NC=O)cc(-c4ccoc4)cn23)cc1OC | inconclusive [cytotoxic, partial curve] | –
CC(C)c1ccc(OCC(O)Cn2cnc3ccccc32)cc1 (stereo unspecified) | inconclusive [cytotoxic, single point] | –
c1ccc(-c2sc3ccccc3c2-c2ccc(OCCN3CCCC3)cc2)cc1 | inconclusive [cytotoxic, single point] | –
CCc1nc2c(OCc3ccccc3)cccn2c1N(C)C(=O)c1ccc(OC)cc1 | – | inconclusive: 7.25%
CN(CC(O)CON=C1c2ccccc2-c2ccccc21)S(=O)(=O)c1ccc(Br)cc1 (stereo unspecified) | inconclusive [cytotoxic, single point] | –
O=[N+]([O-])c1ccc(Nc2c3ccccc3nc3ccccc23)cc1 | inconclusive [cytotoxic, single point] | –
CCOC(=O)c1c2c(n(Cc3ccccc3)c1C)C(=O)C(=O)c1ccccc1-2 | active: 23.1 µM | –
Cc1ccc(C(=O)Nn2c(N)c(S(=O)(=O)c3ccc(C)cc3)c3nc4ccccc4nc32)cc1 | inconclusive [cytotoxic, single point] | –
CC(=O)c1cccc(NC(=O)CNC(=O)c2sc3ccccc3c2Cl)c1 | inconclusive [cytotoxic, single point] | –
O=C(Nc1nnc(C(F)(F)F)s1)C1COc2ccccc2O1 (stereo unspecified) | inconclusive [cytotoxic, single point] | –
CCOC(=O)c1[nH]c(=O)[nH]c1CN(Cc1ccco1)Cc1[nH]c(=O)[nH]c1C(=O)OCC | – | inactive: 10.4%
CCN(c1cccc(C(F)(F)F)c1)S(=O)(=O)c1ccc2c(c1)CCN2C(C)=O | inconclusive [cytotoxic, single point] | –
O=C(NCc1ccco1)C(=O)NCC1OCCCN1S(=O)(=O)c1ccccc1 (stereo unspecified) | – | inactive: 17.5%
COC(=O)C1=CN(Cc2ccc(F)cc2)C=C(C(=O)OC)C1c1cc(OC)c(OC)c(OC)c1 | – | inactive: -20.9%
